81 molecules from ChEMBL document CHEMBL4888484, “Replenishing the malaria drug discovery pipeline: Screening and hit evaluation of the MMV Hit Generation Library 1 (HGL1) against asexual blood stage Plasmodium falciparum ,using a nano luciferase reporter read-out” (2022) can be followed below.

Hit rate of the full screen: of about 150,000 compounds, about 540 (0.36%) showed an effect of 50% or more. This is one part of the list.

For this assay, the system named is Plasmodium falciparum. Kind of assay: Primary screen in NF54 nanoGlo assay, in single point, at 2uM, 72h; a lower Z score goes with more inhibition. Format: functional, Erythrocyte. As to conditions: timepoint 72 hour.
Regarding `CN(C)c1ccccc1N(C)C[C@H]1CCOC1`, the % Inhibition (as a rule, the relative decrease from the control value, in per cent) is given as -7% and the Z score was 0.67.
For `CCN(C(=O)N1CCC(OC)(OC)[C@@H](O)C1)C(C)C`, in that order: 3% and -0.47.
For `CCOC(=O)[C@@H](c1cc(Cl)cc(Cl)c1)N(CC)C(=O)CN(C)S(C)(=O)=O`, in that order: 6% and -0.92.
Take `Cc1nc(-c2ccccc2)sc1C(C)NC(=O)CC(C)C1CCNCC1` (configuration not stated): the “% Inhibition” value is -10% and the Z score came out at 1.03.
The corresponding values for `CC[C@@H](CO)N1CCN(C(=O)Nc2cccc3ccn(C)c23)CC1` are 4% and -0.69.
For `Cc1cc(NC(=O)NCCN2CCC(O)CC2)cnc1C(F)(F)F`, in that order: -1% and 0.21.
Take `Cc1csc(C(=O)N[C@@H](CC(C)C)C(=O)O)c1`: the “% Inhibition” value is listed as -12% and the Z score is reported as 2.21.
The corresponding values for `CCN(C(=O)[C@H]1CCCN(S(=O)(=O)c2ccc3c(c2)NC(=O)CO3)C1)c1ccc(OC)cc1` are -4% and 0.61.
The corresponding values for `O=C(Cn1c(=O)[nH]c2c(-c3ccc(F)cc3)c[nH]c2c1=O)N1CCN(Cc2ccccc2)CC1` are -12% and 1.87.
The corresponding values for `COc1cccc2c1OC[C@@H](C(=O)NCCS(=O)(=O)N1CCCC1)C2` are -4% and 0.54.
Regarding `Cc1ccc(F)c(N2CCC(NC(=O)c3cscn3)CC2)c1`, the “% Inhibition” value is given as -8% and the Z score worked out at 0.91.
For `COC(C)(C(=O)O)C(=O)NC1CCCC1c1ccccc1C(F)(F)F` (configuration not stated), in that order: -11% and 1.49.
The corresponding values for `COc1ccc(-c2ccc(=O)n([C@@H](C)C(=O)Nc3cc(C)no3)n2)cc1` are 27% and -3.55.
For the molecule `COc1ccc([C@H](C(=O)O)N2CCC(c3nc4ccccc4o3)CC2)cc1F`, the “% Inhibition” value was -14% and the Z score is 2.64.
On to `CCc1nc2c(c(O[C@H]3CCCN(S(=O)(=O)Cc4ccccc4)C3)n1)CCOCC2`, for which the “% Inhibition” value was -13% and the Z score stood at 2.01.
For `CC(C)S(=O)(=O)CC(=O)Nc1cc(C(F)(F)F)c(F)cc1O`, in that order: -7% and 0.83.
The corresponding values for `C=C(C)CN1CCCC[C@@H]1Cn1nc(C)nc1C` are -3% and 0.53.
The corresponding values for `C=CCn1cnc2c1c(=O)n(C1CC1)c(=O)n2-c1cccc(Cl)c1` are 5% and -0.61.
Consider `O=C(Nc1ccc2c(c1)C(=O)N1CCC[C@H]1C(O)=N2)c1c(Cl)cccc1Cl`, for which the “% Inhibition” value was -1% and the Z score was determined as 0.14.
For the molecule `Nc1ncc(Cl)cc1S(=O)(=O)N1CC(=O)N(CC(F)(F)F)C1`, the “% Inhibition” value was -8% and the Z score stood at 1.5.
For `CC(C)CCC1=NC2(CCN([C@@H](C)CN3CCCCCC3)CC2)C(=O)N1`, in that order: -13% and 1.59.
The corresponding values for `CC(C)(C)c1ccc(C(=O)N2CCC[C@H]2c2nc(-c3ccccc3Cl)no2)cc1` are -14% and 1.58.
For `COc1cccc(CNC(=O)Cn2c3ccccc3c3cn[nH]c(=O)c32)c1`, in that order: -6% and 1.08.
`CN(C)C1(CN[C@H]2CCc3ccc(OC(F)(F)F)cc32)CCOCC1`: the “% Inhibition” value was -3% and the Z score worked out at 0.42.
The corresponding values for `COC(=O)c1cc(C)nc(N2CCN(C3CCCCC3)CC2)n1` are 2% and -0.37.
For `COc1cnc(NC(=O)N[C@H]2CCS(=O)(=O)C(C)(C)C2)s1`, in that order: -15% and 2.92.
For `CO[C@@H](C)c1noc(CN(C)S(=O)(=O)c2c(C)noc2C)n1`, in that order: 4% and -0.64.
Regarding `O=C(Nc1ccon1)C(=O)NC1CCCCC1`, the “% Inhibition” value is on record as -12% and the Z score was 1.8.
For `O=C(NCC(=O)N1CCCS1(=O)=O)OCc1ccccc1`, in that order: -17% and 2.73.
The corresponding values for `O=S(=O)(c1cccc2cccnc12)N1CC[C@H](n2cc(-c3ccccc3)nn2)C1` are -12% and 1.6.
For `CCN(CC)C(=O)[C@@H]1C[C@@H](NC(=O)c2ccno2)CN1C(=O)C1CCCC1`, in that order: -12% and 1.64.
Regarding `CC[C@H](C)NC(=O)c1csc(CN(CCC(c2ccccc2)c2ccccc2)Cc2ccc(Cl)cc2)n1`, the “% Inhibition” value is -12% and the Z score was 1.35.
The corresponding values for `COc1ccc(NC(=O)N2CCC[C@H](Cn3c(C4CC4)nc4cccnc43)C2)c(C)c1` are -12% and 1.73.
The corresponding values for `CCc1ccc(CNC(=O)c2ccc(-c3noc(-c4ccc(C)cc4)n3)s2)cc1` are -18% and 2.43.
Turning to `CCCCc1nn(CC(=O)N2CCC[C@H]2C(F)(F)F)c(=O)n1CC`, the “% Inhibition” value is 5% and the Z score is recorded as -0.63.
`Cc1c(CN2CC[C@@](O)(CN3CCCCC3)C2)oc2ccccc12`: the “% Inhibition” value was -9% and the Z score is 1.23.
The corresponding values for `CC(=O)c1cn(C(C)(C)CO)c(=O)[nH]c1=O` are -23% and 2.66.
Turning to `Cc1ccc(-c2nc(N)n(C(=O)CCc3ccccc3)n2)cc1C`, the “% Inhibition” value is -10% and the Z score is reported as 1.62.
For `O=C(Nc1ccc(C(=O)N2CCCCC2)cc1)Nc1cnsn1`, in that order: -36% and 4.23.
For `Cn1nc(CCNc2ncnc(N)c2Cl)c2ccccc21`, the “% Inhibition” value came out at 8% and the Z score is listed as -1.12.
The corresponding values for `N#Cc1ccccc1CN1CCC(CCC(=O)NCc2ccc(F)cc2)CC1` are -8% and 1.26.
The corresponding values for `CC(C)N(C(=O)COC(=O)c1ccc(S(=O)(=O)N2CCCCC2)cc1)c1ccccc1` are -13% and 2.56.
Consider `O=S(=O)(NCc1noc(C2CCCC2)n1)c1ccc(-c2cc(C(F)(F)F)[nH]n2)o1`, for which the “% Inhibition” value is recorded as -13% and the Z score was 1.75.
As for `Cc1nc(COc2cccc(C(=O)N3CCc4ccc(F)cc43)c2)no1`, the “% Inhibition” value is on record as -1% and the Z score is 0.14.
Consider `Cc1cccc(C(=O)Nc2sc3c(c2C(=O)N2CCOCC2)CCCCC3)c1`, for which the “% Inhibition” value was -22% and the Z score is 2.35.
With `COc1ccc(C(=O)Nc2nccnc2C(=O)N2CCC(Cc3ccccc3)CC2)cc1`, the “% Inhibition” value is given as -10% and the Z score was determined as 1.45.
For the molecule `Cn1cc([C@H]2CN(C(=O)CCc3nncn3C)C[C@H]2CC(=O)O)nn1`, the “% Inhibition” value was -1% and the Z score was 0.1.
With `c1ccc2c(c1)OC[C@@H](c1n[nH]c3c1CN(Cc1nccs1)CC3)O2`, the “% Inhibition” value was -3% and the Z score turned out to be 0.51.
The corresponding values for `O=C1C[C@@H](C(F)(F)F)C2(CCOCC2)CN1` are -1% and 0.22.
The corresponding values for `CCOC(=O)C1CCC(O)(Cn2cnc3cc(F)c(F)cc32)CC1` (configuration not stated) are -13% and 1.14.
The corresponding values for `Clc1ccc([C@H](c2nnnn2C(c2ccccc2)c2ccccc2)N(Cc2ccccc2)Cc2ccccc2)c(Cl)c1` are 2% and -0.2.
In the case of `C=CCC(CC=C)C(=O)NCCNc1ccccc1`, the “% Inhibition” value was -1% and the Z score is given as 0.23.
The corresponding values for `CC(C)OCCOC[C@@H](O)CN(C)CCC(=O)Nc1ccccc1` are -11% and 1.12.
The corresponding values for `Cn1ccnc1CN1CCc2[nH]cnc2[C@H]1c1c(F)cccc1Cl` are -12% and 2.29.
On to `O=C1C[C@H](c2noc(-c3n[nH]c4ccccc34)n2)CN1c1ccccc1`, for which the “% Inhibition” value was determined as 1% and the Z score is listed as -0.13.
On to `C[C@H]1Cc2ccccc2N1C(=O)c1ccnc(OCC2CCOCC2)c1`, for which the “% Inhibition” value is -22% and the Z score came to 4.12.
For `CC(=O)Nc1nsc(N2CCC(C(=O)N3CCN(C4CCCCC4)CC3)CC2)n1`, in that order: -15% and 2.37.
For `O=C(NCCc1ccccc1)N[C@H]1CCc2nn(CC3CC3)c(=O)n2CC1`, in that order: -11% and 1.65.
For `O=C(Nc1ccnn1C[C@@H]1CC=CCC1)N1CCOc2ccc(CO)cc2C1`, in that order: -12% and 1.51.
Consider `Cc1cccc(-n2c(=O)n(C3CC3)c(=O)c3c2ncn3CCOc2ccccc2)c1`, for which the “% Inhibition” value is on record as 6% and the Z score is given as -0.57.
The corresponding values for `CC(=O)Nc1ccc(OCC(=O)NCc2ccccc2F)nc1` are -1% and 0.21.
For `Cn1nc(C(F)(F)F)cc1S(=O)(=O)NCC[C@]1(O)CCCOC1`, the “% Inhibition” value is recorded as -4% and the Z score came to 0.49.
The corresponding values for `Cc1nccc(Oc2ccc(-n3cccn3)cc2)n1` are -7% and 0.8.
For `Cc1cc(Cc2nc(CC(N)=O)nn2-c2ccc3nc(C)sc3c2)on1`, in that order: -8% and 0.97.
For `CN(Cc1cccnc1)C(=O)c1ccc2c(c1)OCO2`, in that order: 4% and -0.78.
Take `Cc1nc(C)c(CC(=O)Nc2ccc(N(C)C)nc2)c(=O)[nH]1`: the “% Inhibition” value is recorded as 9% and the Z score is on record as -1.18.
The corresponding values for `CC(C)c1c(C(=O)N2CCN(C/C=C/c3ccccc3)CC2)cnn1-c1nccc(-c2ccco2)n1` are -14% and 1.77.
With `Cn1c2c(c(=O)n(C)c1=O)/N=N\c1c(c(=O)n(C)c(=O)n1C)/N=N\2`, the “% Inhibition” value is -8% and the Z score was 0.99.
The corresponding values for `Cc1ccc2nccc(C(=O)N3CCC[C@H](CCC(=O)N4CCCC4)C3)c2c1` are 11% and -1.42.
For `Cc1c(-c2ccc(Cl)cc2)nnn1C[C@H](O)COCC(C)C`, in that order: -1% and 0.18.
On to `Cc1nnc2c3ccc(Cl)cc3nc(N3CCN(S(=O)(=O)c4cccc(Cl)c4)[C@@H](C)C3)n12`, for which the “% Inhibition” value was -15% and the Z score came to 1.79.
Consider `CCc1c(C(=O)N(CCO)Cc2ccc(C)o2)ccn1C`, for which the “% Inhibition” value was -1% and the Z score was found to be 0.14.
For `CN1CCN([C@@H]2COC3(C2)CN(S(=O)(=O)c2ccccc2Cl)C3)CC1`, in that order: -4% and 0.63.
For `Cc1nc(C)c(-c2cccc(C(=O)NCC[C@H](C)n3ccnc3)c2)s1`, in that order: -12% and 1.59.
For `CC(C)(C)OC(=O)N1CCC2(CC1)O[C@@H](CN)Cc1ccccc12`, in that order: -15% and 2.02.
For the molecule `CCc1nnc([C@@H]2CN(c3ccnc(C(C)C)n3)CCO2)o1`, the “% Inhibition” value was -4% and the Z score turned out to be 0.78.
For `c1ccc(-c2nnc3nc(N4CCOCC4)nc(N4CCOCC4)n23)cc1`, the “% Inhibition” value stood at 36% and the Z score was -4.69.
The corresponding values for `CN(Cc1ccc(Cl)cc1)CC1(CO)CCC1` are -13% and 1.38.
For `c1cc(NC2C3CCOC3C23CCC3)c2c(c1)OCCO2` (configuration not stated), in that order: 1% and -0.12.
For `COCCc1nc(CNC(=O)[C@H]2C[C@@H]2c2ccccc2)no1`, in that order: 1% and -0.16.
Regarding `O=C(Oc1ccccc1)c1ccc(NS(=O)(=O)c2ccc(Cl)cc2)cc1O`, the “% Inhibition” value is recorded as -8% and the Z score is listed as 1.52.
